Source: publication PMC12847774, “SERPINB3 enhances NPM1 sumoylation via inhibiting SENP3’s activity and promotes lung tumorigenesis” (Cell Death & Disease, 2025)

Target: T1, SENP3 purified protein (UniProt Q9H4L4 1-574)
T1 construct: SENP3; cloned into pET-28a(+) between BamHI and HindIII; also called wild-type SENP3; pET-28a (+)-SENP3; source: E. coli Rosetta (DE3), purified (Ni-NTA)
Experiment: co-IP; in vitro immunoprecipitation with Flag antibody using purified recombinant proteins
Settings: both partners purified

- binding result: binds
B1: NPM1Δ2-9 (natural protein)
chain: not shown
notes: NPM1 without residues 2-9; Flag tag surmised as for m14; also called N-terminal deletion; N-terminal truncation
